Test results as given in the supplement of paper PMC11417369.
± gives the standard deviation of the averaged measurements. Some of the results follow.

The sequences below were run on PfAP2-LT AP2 domain (GST-tagged) (assay: gcPBM binding intensity (ln(normalized median fluorescence intensity)); higher = stronger DNA binding).
In short: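 GST-fused DNA-binding domains of P. falciparum, expressed in E. coli, were applied at about 25 μg on average for 1 h to an Agilent 4 × 180k array of primer-extended double-stranded 36-bp intergenic genomic probes and negative controls. Binding intensity is the highest Masliner-normalised natural-log median intensity across replicate spots of either probe orientation, measured with Alexa488 anti-GST antibody and a 488 nm scan.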
For “GAGAAAAATATATACACACACATAAATATATACATA [CACACA_site1895]”, the “gcPBM binding intensity (ln)” value was 9.48 ± 0.26. “ATAAATGTGTTTATTTAACACACAAAAGAAAAAATA [CACACA_site8589]” was tested, and the “gcPBM binding intensity (ln)” value was 9.05 ± 0.54. “TGTATAACCTGTGTTACACACATTAAAATTTATATA [CACACA_site4449]” was tested, and the “gcPBM binding intensity (ln)” value was 8.75 ± 0.44. “GATATTTTTATTTGTTGTACTTAAGATAATAAATGA [XGTACX_site2891]” was tested, and the “gcPBM binding intensity (ln)” value was 8.39 ± 0.35. For “AATATATTAAAAAAGCGTACAAGAATTGGAAAATGG [XGTACX_site6576]”, the “gcPBM binding intensity (ln)” value was 8.95 ± 0.38. “AAAAAAAAAAAAATACGTACACAAAAAATTGCAAAG [XGTACX_site5663]” was tested, and the “gcPBM binding intensity (ln)” value was 8.9 ± 0.35. For “CATACATAAATATAAACATGCATATATTTTTTTTAT [TGCATGCA_site616]”, the “gcPBM binding intensity (ln)” value was 8.76 ± 0.47. With “TGATATCTTAAGAAATGTACAAAGATATAACCATTT [XGTACX_site1913]” the “gcPBM binding intensity (ln)” value was 8.7 ± 0.41. “ATTTTAATAAAATATGTACACACATACACCCATATA [CACACA_site8326]” was tested, and the “gcPBM binding intensity (ln)” value was 9.17 ± 0.34. “TAAATAAAAAAAAATACACACATCTATATAAAATAT [CACACA_site3774]” was tested, and the “gcPBM binding intensity (ln)” value was 8.98 ± 0.42. “GTATCAAAAGAATACACACACACATACCTATAAATA [CACACA_site7737]” was tested, and the “gcPBM binding intensity (ln)” value was 9.86 ± 0.28. In the case of “AAAGGAAAAAAAGTAGCACACAAATATTTATAATAT [CACACA_site8772]”, the “gcPBM binding intensity (ln)” value is reported as 9.1 ± 0.58. For “AAAAAAAAAACACACACATGCACATCATATTATATA [TGCATGCA_site133]”, the “gcPBM binding intensity (ln)” value was 9.35 ± 0.3. With “GATATGTAAATAATATGTACATATTTATATTGTATT [XGTACX_site4052]” the “gcPBM binding intensity (ln)” value was 8.76 ± 0.44. In the case of “TTTAAAGGTGATAAAACACACGATTTAGAAATGTAT [CACACA_site3161]”, the “gcPBM binding intensity (ln)” value is reported as 8.82 ± 0.48. For “ATATATTATCAACTTACACACAGAAAAATATAATAA [CACACA_site293]”, the “gcPBM binding intensity (ln)” value was 9.04 ± 0.41. For “AAAAAGAATGTGAACACACACATTGAATATAATTTA [CACACA_site1262]”, the “gcPBM binding intensity (ln)” value was 9.16 ± 0.52. With “TTAATACAAATAAAAAGTACAAGTATCGAACTACTA [XGTACX_site6308]” the “gcPBM binding intensity (ln)” value was 8.72 ± 0.44. In the case of “TTTTTAGTAACATATAGTACATATATATATATATGT [XGTACX_site4780]”, the “gcPBM binding intensity (ln)” value is reported as 8.79 ± 0.39. For “TTATTTTTTCTTCAAATGTGAATTATTCATTTATTT [TGCATGCA_negctrl_site545]”, the “gcPBM binding intensity (ln)” value was 8.63 ± 0.49. For “ATAATATGAAACTCGTACGAGGTTGTCCCAAATATA [CACACA_negctrl_site1350]”, the “gcPBM binding intensity (ln)” value was 9.11 ± 0.4. With “TGGAAAGTTATTAACACACACATATAAATATTTATA [CACACA_site6173]” the “gcPBM binding intensity (ln)” value was 9.03 ± 0.41. For “AGATCATAATATTATACACACATTATATATATGTAA [CACACA_site8419]”, the “gcPBM binding intensity (ln)” value was 8.99 ± 0.35. In the case of “TATATATAATATTATACACACATATCTGCATAATAT [CACACA_site4202]”, the “gcPBM binding intensity (ln)” value is reported as 9.11 ± 0.4. With “AAAAACCATTCGCACACACACATAATCTATAATATA [CACACA_site6782]” the “gcPBM binding intensity (ln)” value was 9.73 ± 0.3. For “AAGTACCATATAGGCACACATATATATATATATATA [CACACA_site3282]”, the “gcPBM binding intensity (ln)” value was 10 ± 0.28. In the case of “AAAAACGAAAAAAATACACACCTGAAAAGATATGTA [CACACA_site4644]”, the “gcPBM binding intensity (ln)” value is reported as 9.07 ± 0.48. With “GTATATATGTATATGTGTACATATATTTTATAATAT [XGTACX_site5703]” the “gcPBM binding intensity (ln)” value was 8.79 ± 0.36. With “TTTTCTTGTAGTATAACAAAATATAGTAATATATAT [GTGCAC_negctrl_site609]” the “gcPBM binding intensity (ln)” value was 8.33 ± 0.42. With “GTTGTTATATAAAGGAGTACATAATAACACAAATAT [XGTACX_site615]” the “gcPBM binding intensity (ln)” value was 8.96 ± 0.33. With “CCATTTGGTATTATATGTACATATAATTTTTTTTTT [XGTACX_site157]” the “gcPBM binding intensity (ln)” value was 8.74 ± 0.49. With “AATCCTTCATATGTAGTGCATATTAACAAAATAAAA [GTGCAC_site9500]” the “gcPBM binding intensity (ln)” value was 8.58 ± 0.44. In the case of ATGAAATATTTATTTGTGCACTTAATTTGTTGGAAA, the “gcPBM binding intensity (ln)” value is reported as 8.61 ± 0.48. “GATTTATTTCATATCACACATTTTGGCTATTTTGTG [CACACA_site5793]” was tested, and the “gcPBM binding intensity (ln)” value was 9.07 ± 0.44. In the case of “AAAAAAAAAAAAAAAACACACATTTATAGTATATAT [CACACA_site1194]”, the “gcPBM binding intensity (ln)” value is reported as 8.87 ± 0.3. For “TCCAATTCTTTATTTTGTACACATTATGTGCATATG [XGTACX_site6290]”, the “gcPBM binding intensity (ln)” value was 8.99 ± 0.57. In the case of “AGTATTATATATATATGTACATAATATACATATATA [XGTACX_site8514]”, the “gcPBM binding intensity (ln)” value is reported as 8.73 ± 0.36. “TTATAAGATTTATGTACACACATATACACAGCTCTA [CACACA_site6481]” was tested, and the “gcPBM binding intensity (ln)” value was 9.06 ± 0.45. In the case of “TCCTAATGCTACCACACACACAAAAACAAATAATAA [CACACA_site2610]”, the “gcPBM binding intensity (ln)” value is reported as 9.35 ± 0.41. In the case of “TATTAAAATATTTATACACACATAATTTTGATAAAT [CACACA_site4486]”, the “gcPBM binding intensity (ln)” value is reported as 8.6 ± 0.33. With “TGTCATTCCTCTTATTGTACAAAAATATTATAATAT [XGTACX_site1134]” the “gcPBM binding intensity (ln)” value was 8.67 ± 0.42. For “TGTTATTAGAAAAATGCACACCAAAAAAAAAAAAAA [CACACA_site8802]”, the “gcPBM binding intensity (ln)” value was 8.7 ± 0.51. With “ATATACATAATATATAATATAAATATATATATGGAA [CACACA_negctrl_site906]” the “gcPBM binding intensity (ln)” value was 8.75 ± 0.42. In the case of “GCTATAAATACAGACGCACACATATACATACAGATA [CACACA_site5778]”, the “gcPBM binding intensity (ln)” value is reported as 9.33 ± 0.42. In the case of “TAATTAATTTACATTTTAATTTTATACAAAATTTAT [CACACA_negctrl_site830]”, the “gcPBM binding intensity (ln)” value is reported as 8.3 ± 0.53. For “ACATATTTATATTCTACACACTTATACTATAATACA [CACACA_site7204]”, the “gcPBM binding intensity (ln)” value was 8.96 ± 0.4. For “ATGGAACTTAAAAATTGTACACATAAAATGGAGAAG [XGTACX_site1823]”, the “gcPBM binding intensity (ln)” value was 8.88 ± 0.47. In the case of “GTTATACGCATCAACACACACATACAACGTGGTGTA [CACACA_site1188]”, the “gcPBM binding intensity (ln)” value is reported as 9.15 ± 0.3. “TGGTAATATCGATTCACACATATCAAAATAAAAAAA [CACACA_site4196]” was tested, and the “gcPBM binding intensity (ln)” value was 8.71 ± 0.45. For “TAGGAGAAAAAAAAAAGTACCCACAACTATTATACT [XGTACX_site8195]”, the “gcPBM binding intensity (ln)” value was 8.93 ± 0.4. With “AACATATTAATGTACACACACCCACGCACAAACAAA [CACACA_site7320]” the “gcPBM binding intensity (ln)” value was 9.765 ± 0.092. “TATATATATTAACTTGTGCGCAAAAAGATATAATTT [GTGCAC_site9672]” was tested, and the “gcPBM binding intensity (ln)” value was 8.91 ± 0.31. For “AATATTTTGATGTGTACACATTAATACAGTTTTACA [CACACA_site5711]”, the “gcPBM binding intensity (ln)” value was 8.9 ± 0.35. For “AAGAAATAAAAAAAACGTACATATATACATACATAC [XGTACX_site3980]”, the “gcPBM binding intensity (ln)” value was 8.91 ± 0.42. For “ATATGTATGTATGTCTCAAAATTTCATATTATATTA [CACACA_negctrl_site784]”, the “gcPBM binding intensity (ln)” value was 8.62 ± 0.43. In the case of “TAGGATATTGAATAATGTACTTTATATATAATATAA [XGTACX_site7828]”, the “gcPBM binding intensity (ln)” value is reported as 8.38 ± 0.45. In the case of “AATATATATATTAAATGTACATTACATAATTATATA [XGTACX_site3450]”, the “gcPBM binding intensity (ln)” value is reported as 8.61 ± 0.48.
